From the supplement of paper PMC11876631
± gives the standard deviation of the averaged measurements. Laboratory Escherichia coli strains with one amino-acid change in an essential protein, pooled on minimal glucose agar with carbenicillin or gentamicin at twice the control MIC (plus kanamycin and chloramphenicol for the plasmids), 48 h. Fold change of barcode share against drug-free plates; higher = less susceptible. Active = above 20 in both replicates (the paper's putatively resistant). '<' = one read or none on drug, '>' = one read or none on a drug-free plate. Shares are relative, so most strains fall below 1 when a few take over. Listed are strains with at least 15 reads on both drug-free plates, and hits; most hits rest on fewer reference reads. Replicate rank correlation about 0.5. Edits are read from barcodes.

B1: purF; numbered along this chain (parent)
chain: MCGIVGIAGVMPVNQSIYDALTVLQHRGQDAAGIITIDANNCFRLRKANGLVSDVFEARHMQRLQGNMGIGHVRYPTAGSSSASEAQPFYVNSPYGITLAHNGNLTNAHELRKKLFEEKRRHINTTSDSEILLNIFASELDNFRHYPLEADNIFAAIAATNRLIRGAYACVAMIIGHGMVAFRDPNGIRPLVLGKRDIDENRTEYMVASESVALDTLGFDFLRDVAPGEAIYITEEGQLFTRQCADNPVSNPCLFEYVYFARPDSFIDKISVYSARVNMGTKLGEKIAREWEDLDIDVVIPIPETSCDIALEIARILGKPYRQGFVKNRYVGRTFIMPGQQLRRKSVRRKLNANRAEFRDKNVLLVDDSIVRGTTSEQIIEMAREAGAKKVYLASAAPEIRFPNVYGIDMPSATELIAHGREVDEIRQIIGADGLIFQDLNDLIDAVRAENPDIQQFECSVFNGVYVTKDVDQGYLDFLDTLRNDDAKAVQRQNEVENLEMHNEG
B2: purL; numbered along this chain (parent)
chain: MMEILRGSPALSAFRINKLLARFQAARLPVHNIYAEYVHFADLNAPLNDDEHAQLERLLKYGPALASHAPQGKLLLVTPRPGTISPWSSKATDIAHNCGLQQVNRLERGVAYYIEAGTLTNEQWQQVTAELHDRMMETVFFALDDAEQLFAHHQPTPVTSVDLLGQGRQALIDANLRLGLALAEDEIDYLQDAFTKLGRNPNDIELYMFAQANSEHCRHKIFNADWVIDGEQQPKSLFKMIKNTFETTPDHVLSAYKDNAAVMEGSEVGRYFADHETGRYDFHQEPAHILMKVETHNHPTAISPWPGAATGSGGEIRDEGATGRGAKPKAGLVGFSVSNLRIPGFEQPWEEDFGKPERIVTALDIMTEGPLGGAAFNNEFGRPALNGYFRTYEEKVNSHNGEELRGYHKPIMLAGGIGNIRADHVQKGEINVGAKLVVLGGPAMNIGLGGGAASSMASGQSDADLDFASVQRDNPEMERRCQEVIDRCWQLGDANPILFIHDVGAGGLSNAMPELVSDGGRGGKFELREILSDEPGMSPLEIWCNESQERYVLAVAADQLPLFDELCKRERAPYAVIGEATEELHLSLHDRHFDNQPIDLPLDVLLGKTPKMTRDVQTLKAKGDALAREGITIADAVKRVLHLPTVAEKTFLVTIGDRSVTGMVARDQMVGPWQVPVANCAVTTASLDSYYGEAMAIGERAPVALLDFAASARLAVGEALTNIAATQIGDIKRIKLSANWMAAAGHPGEDAGLYEAVKAVGEELCPALGLTIPVGKDSMSMKTRWQEGNEEREMTSPLSLVISAFARVEDVRHTITPQLSTEDNALLLIDLGKGNNALGATALAQVYRQLGDKPADVRDVAQLKGFYDAIQALVAQRKLLAYHDRSDGGLLVTLAEMAFAGHCGIDADIATLGDDRLAALFNEELGAVIQVRAADREAVESVLAQHGLADCVHYVGQAVSGDRFVITANGQTVFSESRTTLRVWWAETTWQMQRLRDNPECADQEHQAKSNDADPGLNVKLSFDINEDVAAPYIATGARPKVAVLREQGVNSHVEMAAAFHRAGFDAIDVHMSDLLTGRTGLEDFHALVACGGFSYGDVLGAGEGWAKSILFNDRVRDEFATFFHRPQTLALGVCNGCQMMSNLRELIPGSELWPRFVRNTSDRFEARFSLVEVTQSPSLLLQGMVGSQMPIAVSHGEGRVEVRDAAHLAALESKGLVALRYVDNFGKVTETYPANPNGSPNGITAVTTESGRVTIMMPHPERVFRTVSNSWHPENWGEDGPWMRIFRNARKQLG

Variants of: B1
Assay: barcode share on antibiotic plates over drug-free plates; higher = less susceptible
Settings: with Escherichia coli (laboratory strain); antibiotic: carbenicillin; 2× MIC (3.1 µg/mL)
Procedure: (§1)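 A pool of E. coli strains, each edited to carry one amino-acid change in an essential protein, was grown for 48 h on minimal glucose agar with or without antibiotic; strain barcodes were sequenced; mean of two replicates.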

Row | Variant | fold change of barcode share
1 | I35P | > 30.5 [active]
2 | I35Q | 0.55 ± 0.075
3 | I35W | 0.558 ± 0.12
4 | V171A | 0.617 ± 0.11
5 | V171D | > 181 [active]
6 | V171P | 51.3 [active]
7 | M173A | 0.507 ± 0.016
8 | M173D | 9.29 ± 3.3
9 | M173P | 110 [active]
10 | M173Q | 0.528 ± 0.19
11 | M173W | 0.749 ± 0.2
12 | I174A | 0.769 ± 0.066
13 | I174P | 89.5 [active]
14 | I174Q | 3 ± 0.39
15 | I174W | 7.54 ± 0.57
16 | L254D | 0.494 ± 0.033
17 | L254Q | 0.349 ± 0.095
18 | F255A | 0.631 ± 0.06
19 | F255Q | 0.581 ± 0.014
20 | F255W | 2.39 ± 0.76
21 | L479A | 6.39 ± 1.6
22 | L479D | 1.31 ± 0.35
23 | L479W | 6.1519 ± 0.0019

Same assay, conditions: with Escherichia coli (laboratory strain); antibiotic: gentamicin; 2× MIC (MIC 0.45 µg/mL)

Row | Variant | fold change of barcode share
24 | I35Q | 0.00411 ± 0.0023
25 | I35W | 0.00599 ± 0.0051
26 | V171A | 0.0116 ± 0.015
27 | M173A | 0.00701 ± 0.0066
28 | M173D | 0.00729 ± 0.0075
29 | M173Q | 0.0136 ± 0.013
30 | M173W | 0.0214 ± 0.027
31 | I174A | 0.00257 ± 0.00043
32 | I174Q | 0.00576 ± 0.0037
33 | I174W | 0.00911 ± 0.0053
34 | F255Q | < 0.0195
35 | L479A | < 0.0196
36 | L479D | 0.0109 ± 0.0061
37 | L479W | < 0.012
38 | I174D | < 0.0234

Variants of: B2
Assay: as above
Settings: with Escherichia coli (laboratory strain); antibiotic: carbenicillin; 2× MIC (3.1 µg/mL)
Procedure: as §1

Row | Variant | fold change of barcode share
39 | V333P | > 50.5 [active]
40 | V333Q | 0.408 ± 0.18
41 | F499A | 1.07 ± 0.34
42 | F499D | 0.876 ± 0.43
43 | F499P | 1.77 ± 0.73
44 | F499Q | 0.686 ± 0.24
45 | F499W | 0.75 ± 0.16
46 | I500A | 0.56 ± 0.014

Same assay, conditions: with Escherichia coli (laboratory strain); antibiotic: gentamicin; 2× MIC (MIC 0.45 µg/mL)

Row | Variant | fold change of barcode share
47 | V333Q | < 0.00922
48 | F499A | < 0.00808
49 | F499D | < 0.0123
50 | F499P | < 0.0198
51 | F499Q | < 0.00553
52 | F499W | 0.017 ± 0.016
53 | I500A | 0.0111 ± 0.0055
